Assay [1] addresses T1, full-length rat Gαi dominant negative (G203A) (rat, UniProt P10824, G203A).
T1 construct: The methods say only Gαi; also called Gαi1; source: E. coli BL21 (DE3), purified (Ni-NTA, Superdex 200), in buffers with 10 µM GDP
The assay is described as follows: cryo-EM structure; purified S1P1, Gαi and Gβ1γ2 mixed 1:1.5:1.5 in 10 mM HEPES pH 7.0, 100 mM NaCl, 0.05% MNG, 0.01% glycerol, 0.1 mM TCEP, 0.4 U apyrase, 2 mM MgCl2, with 10 µM S1P, 4 °C overnight; Superdex 200 with 1 µM agonist; single-particle cryo-EM. The following applies: both partners purified.

For assay [2], the target named is T1, full-length rat Gαi dominant negative …. The assay is described as follows: cryo-EM structure; purified LPA1, Gαi and Gβ1γ2 mixed 1:1.5:1.5 in 10 mM HEPES pH 7.0, 100 mM NaCl, 0.05% MNG, 0.01% glycerol, 0.1 mM TCEP, 0.4 U apyrase, 2 mM MgCl2, with 10 µM LPA, 4 °C overnight; Superdex 200 with 1 µM agonist; single-particle cryo-EM (consensus, state a and state a' from 3DVA clustering). The following applies: both partners purified.

B1: human S1P receptor 1 (S1P1), residues 2-347 (receptor, UniProt P21453 2-347, looked up)
chain: GPTSVPLVKAHRSSVSDYVNYDIIVRHYNYTGKLNISADKENSIKLTSVVFILICCFIILENIFVLLTIWKTKKFHRPMYYFIGNLALSDLLAGVAYTANLLLSGATTYKLTPAQWFLREGSMFVALSASVFSLLAIAIERYITMLKMKLHNGSNNFRLFLLISACWVISLILGGLPIMGWNCISALSSCSTVLPLYHKHYILFCTTVFTLLLLSIVILYCRIYSLVRTRSRRLTFRKNISKASRSSEKSLALLKTVIIVLSVFIACWAPLFILLLLDVGCKVKTCDILFRAEYFLVLAVLNSGTNPIIYTLTNKEMRRAFIRIMSCCKCPSGDSAGKFKRPIIAG
modifications: glycosylation on the cap segment (residue not given)
notes: human sphingosine 1-phosphate receptor 1 (S1P1), residues 2-347; A remnant of the PreScission site is left at the C-terminus after the cut; also called sphingosine 1-phosphate receptor 1; source: Sf9 insect cells, purified (GFP nanobody beads, PreScission cut, Superdex 200); not shown: eGFP, C-terminal, cleaved; 8xHis, C-terminal, cleaved
With B1, the binding result in assay [1] is listed as “binds”.

B2: human LPA receptor 1 (LPA1), residues 2-340 (receptor, UniProt Q92633 2-340, looked up)
chain: AAISTSIPVISQPQFTAMNEPQCFYNESIAFFYNRSGKHLATEWNTVSKLVMGLGITVCIFIMLANLLVMVAIYVNRRFHFPIYYLMANLAAADFFAGLAYFYLMFNTGPNTRRLTVSTWLLRQGLIDTSLTASVANLLAIAIERHITVFRMQLHTRMSNRRVVVVIVVIWTMAIVMGAIPSVGWNCICDIENCSNMAPLYSDSYLVFWAIFNLVTFVVMVVLYAHIFGYVRQRTMRMSRHSSGPRRNRDTMMSLLKTVVIVLGAFIICWTPGLVLLLLDVCCPQCDVLAYEKFFLLLAEFNSAMNPIIYSYRDKEMSATFRQILCCQRSENPTGPTEG
notes: human lysophosphatidic acid receptor 1 (LPA1), residues 2-340; A remnant of the PreScission site is left at the C-terminus after the cut; also called lysophosphatidic acid receptor 1; source: Sf9 insect cells, purified (GFP nanobody beads, PreScission cut, Superdex 200); not shown: eGFP, C-terminal, cleaved; 8xHis, C-terminal, cleaved
Consider B2, for which the binding result in assay [2] was “binds”.

The values above are taken from paper PMC8826421, “Differential activation mechanisms of lipid GPCRs by lysophosphatidic acid and sphingosine 1-phosphate” (Nature Communications, 2022).
